# In the supplement of paper PMC3724861:
# This is one part of the list.
# System: T1, Caupolican (Caup) homeodomain DNA-binding domain
# T1 sequence: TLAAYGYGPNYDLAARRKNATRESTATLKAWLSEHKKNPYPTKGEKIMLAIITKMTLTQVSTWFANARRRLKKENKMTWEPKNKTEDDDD
# Assay: PBM E-score (8-mer, recovered from the published 9-mer minima) (E-score (dimensionless, -0.5 to 0.5)); Drosophila protein; higher = stronger relative binding preference, active = 0.31 or more
# How it was run: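 An enrichment score, with higher meaning stronger, expresses relative binding preference for each short DNA word. The protein used was Caup's homeodomain DNA-binding domain (residues 214-303), produced by in vitro transcription and translation and tested at 100 nM on custom-designed protein binding microarrays. The 8-mer values were recovered from published 9-mer scores, each equal to the lower of its two constituent 8-mer scores.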
row,Sequence,PBM E-score
1,ACCCCTCT,inactive: -0.0958
2,AGCTAGAG,inactive: -0.119
3,CGGCTTTC,inactive: -0.191
4,GAGGTATC,inactive: -0.0102
5,TCGAACGA,inactive: 0.0918
6,ATACTGAC,inactive: 0.0949
7,CTGAAAAC,inactive: -0.0188
8,CATAAATA,inactive: 0.211
9,CGGTGTAC,inactive: 0.257
10,CCAAATAG,inactive: -0.00279
11,CTTGCCTC,inactive: -0.0653
12,ATGCCCTA,inactive: -0.0824
13,CCTCTTCG,inactive: -0.0532
14,ACGTGGAG,inactive: -0.0857
15,CCGGCTAC,inactive: -0.175
16,AGACTGTC,inactive: 0.0269
17,CCCACGAG,inactive: -0.148
18,CCACTAGA,inactive: -0.164
19,CGCCCCAC,inactive: -0.243
20,AACGAGCC,inactive: 0.0103
21,AGGACTCC,inactive: -0.156
22,AGCTTGCC,inactive: -0.124
23,GCGATGGA,inactive: -0.0635
24,AGTATATA,inactive: 0.159

row,Sequence,PBM E-score
1,ATCCCTAG,inactive: -0.0272
2,CACTGAAC,inactive: 0.08
3,ACGCGGTC,inactive: -0.118
4,ACCACCTA,inactive: 0.0794
5,AAAGGTAG,inactive: -0.0595
6,CTGCCCCC,inactive: -0.251
7,CTGACGCC,inactive: -0.159
8,ACGCAACC,inactive: -0.0259
9,ACTCATAA,inactive: 0.077
10,AGCTCATG,inactive: 0.0148
11,CTCTAAAG,inactive: -0.0918
12,CGCGGCTA,inactive: -0.184
13,CGGAGTCC,inactive: -0.0906
14,GCATTGCA,inactive: -0.0386
15,AAGGGCAC,inactive: -0.142
16,AGAGCACG,inactive: -0.0138
17,CCATCTAA,inactive: -0.065
18,GGAATCAC,inactive: 0.0534
19,GCACGAAC,inactive: 0.0338
20,CGCTAGCA,inactive: 0.0145
21,AATCACGT,inactive: 0.134
22,AACAACTG,inactive: 0.208
23,GATAAGGA,inactive: 0.0879
24,GGAAATGA,inactive: 0.0251

row,Sequence,PBM E-score
1,AACACTAA,inactive: 0.166
2,CAGATCGA,inactive: 0.0528
3,ATGTCGGG,inactive: 0.189
4,TGGCTGAA,inactive: -0.108
5,AGGCCGAG,inactive: -0.146
6,AGGTATGG,inactive: -0.108
7,CATAAACC,inactive: 0.0813
8,CCTACTCG,inactive: -0.089
9,AGGGGAAC,inactive: -0.181
10,ACTTTAGC,inactive: -0.101
11,AAGATGCC,inactive: -0.104
12,CTCCAAAG,inactive: -0.048
13,GGTTTTCA,inactive: 0.00673
14,GCTTTCCA,inactive: -0.113
15,ATGTTGGA,inactive: 0.198
16,AAAAAACT,inactive: 0.0351
17,ATGTCTAC,inactive: 0.19
18,GATACATC,inactive: 0.297
19,GCGTGCAC,inactive: -0.0425
20,CGTCCTAA,inactive: -0.0546
21,TACTCTGA,inactive: 0.0244
22,ATAATGCC,inactive: 0.0429
23,CATTTCCC,inactive: 0.0455
24,TTCTAAAA,inactive: 0.0346

row,Sequence,PBM E-score
1,GTTAAAAC,inactive: 0.0744
2,GACCTAGA,inactive: -0.0889
3,CGCGTTAC,inactive: 0.0398
4,CATAACGG,inactive: 0.0573
5,ACTGCGCC,inactive: -0.182
6,ATGGAACC,inactive: -0.00509
7,CCTGTCAG,inactive: 0.115
8,AAGTAGCA,≥ 0.108
9,AGGATTTC,inactive: -0.0357
10,ACGGGTCT,inactive: -0.105
11,GAAGGGCA,inactive: -0.168
12,CAGTCACC,inactive: -0.061
13,CGAATAGC,inactive: 0.0209
14,AAAATACA,inactive: 0.263
15,GTCCGTTA,inactive: 0.118
16,AGACAGGG,inactive: -0.0685
17,ACAACTTA,inactive: 0.268
18,ATAACAAA,inactive: 0.205
19,ACCTTGTG,inactive: 0.0927
20,GACTTTAA,inactive: 0.0173
21,CACTGCCG,inactive: -0.173
22,ATCTCTAC,inactive: 0.13
23,AGCCTGTG,inactive: -0.0477
24,ACATCGGA,≥ 0.166

row,Sequence,PBM E-score
1,CCCCCACG,inactive: -0.312
2,GTCATGCA,inactive: 0.111
3,CAGTGCTA,inactive: -0.0583
4,CTTCCTGC,inactive: -0.209
5,AGTTATTA,inactive: 0.161
6,CTATAACC,inactive: 0.126
7,CCATGCGG,inactive: -0.187
8,AAATTAAG,inactive: 0.0652
9,GCGAAGGA,inactive: -0.0775
10,AGGACTTG,inactive: 0.0496
11,AAGTTCCC,inactive: -0.202
12,GCCCCAGC,inactive: -0.257
13,GTATAGGA,inactive: 0.0342
14,CACCTTCC,inactive: -0.0194
15,TGCTGCCA,inactive: -0.0702
16,CCCATCAA,inactive: -0.0524
17,GAGAACAA,inactive: 0.132
18,ACTGACGC,inactive: -0.129
19,AAAGTCTA,inactive: 0.0286
20,ATTCCACA,inactive: 0.121
21,AAACACCA,inactive: 0.179
22,GTTCAACA,inactive: 0.198
23,ACGTAGAA,inactive: 0.0144
24,ATCATCTC,inactive: 0.0698

row,Sequence,PBM E-score
1,ATCGCTGG,inactive: -0.114
2,CTAGGTCA,inactive: 0.042
3,AGTTTCCG,inactive: -0.135
4,CAGTCTAG,inactive: -0.0348
5,ATTGGGCA,inactive: -0.00711
6,ACGGCCCA,inactive: -0.237
7,GGTTCCAC,inactive: -0.111
8,CGCCCGGA,inactive: -0.206
9,AATCGGCG,inactive: -0.11
10,TAAGGTCA,inactive: -0.0368
11,CCATAAGG,inactive: -0.2
12,ACGTCGCT,≥ -0.0424
13,CACTGCAA,inactive: 0.0155
14,ACAAACGT,inactive: 0.116
15,ACAAAGGT,inactive: 0.0951
16,ACCCCTAA,inactive: -0.166
17,CCGGTTCG,inactive: -0.0867
18,AGCTGAGG,inactive: -0.169
19,CGAGGACC,inactive: -0.114
20,CGAGCGCC,inactive: -0.248
21,ACACACAA,inactive: 0.299
